Reference: the antibiotic and cytotoxicity screens of Wong et al. (2023)
The other results are listed elsewhere or left out.

Legend:
HSkMC = human skeletal muscle cells; test: cytotoxicity call (relative viability < 0.9); settings: 10 µM
HepG2 = test: cytotoxicity call (relative viability < 0.9); settings: 10 µM
S. aureus RN4220 = test: growth inhibition call (relative growth <= 0.2); settings: 50 µM

Row | SMILES | cytotoxicity call (HSkMC) | cytotoxicity call (HepG2) | growth inhibition call (S. aureus RN4220)
1 | CN1C(=O)[C@@]23C[C@]4([C@@]56C[C@]78SS[C@](CO)(C(=O)N7[C@@H]5Nc5ccccc56)N(C)C8=O)c5ccccc5N[C@H]4N2C(=O)[C@@]1(CO)SS3 | active | active | active
2 | COC(=O)C[C@H]1CC[C@H]2NC[C@H](O)COC[C@@H]2O1 | inactive | inactive | inactive
3 | C1CC(NC2CCOCC2)CCO1 | inactive | inactive | inactive
4 | CC=Cc1ccc2c(c1)OCO2 | inactive | inactive | inactive
5 | CCN1C[C@H]2C[C@H](C(=O)NCC3CC3)[C@@H](C1)O2 | inactive | inactive | inactive
6 | COc1cc2c(cc1O)CCNC2C (stereo unspecified) | inactive | inactive | inactive
7 | CC(=O)O[C@@]12CO[C@@H]1C[C@H](O)[C@@]1(C)C(=O)[C@H](O)C3=C(C)[C@@H](OC(=O)[C@H](O)[C@@H](NC(=O)c4ccccc4)c4ccccc4)C[C@](O)([C@@H](OC(=O)c4ccccc4)[C@H]21)C3(C)C | inactive | active | inactive
8 | C=CCN1C[C@H]2CN(C(C)C)C[C@H]2C1=O | inactive | inactive | inactive
9 | O=C1CO[C@H]2CNC[C@@H]2N1CC1CCCC1 | inactive | inactive | inactive
10 | COC(=O)C[C@@H]1CC[C@@H]2NC[C@H](O)COC[C@H]2O1 | inactive | inactive | inactive
11 | COC(C)(C)CCC[C@H](C)C/C=C/C(C)=C/C(=O)OC(C)C | inactive | inactive | inactive
12 | Cc1cc(C(C#N)c2ccc(Cl)cc2)c(Cl)cc1NC(=O)c1cc(I)cc(I)c1O (stereo unspecified) | inactive | inactive | inactive
